# Some of the results follow. Values were computed here from the reads of four pooled replicates and scatter widely.
# Target: T1, Pho4 (S. cerevisiae) (UniProt P07270)
# T1 sequence: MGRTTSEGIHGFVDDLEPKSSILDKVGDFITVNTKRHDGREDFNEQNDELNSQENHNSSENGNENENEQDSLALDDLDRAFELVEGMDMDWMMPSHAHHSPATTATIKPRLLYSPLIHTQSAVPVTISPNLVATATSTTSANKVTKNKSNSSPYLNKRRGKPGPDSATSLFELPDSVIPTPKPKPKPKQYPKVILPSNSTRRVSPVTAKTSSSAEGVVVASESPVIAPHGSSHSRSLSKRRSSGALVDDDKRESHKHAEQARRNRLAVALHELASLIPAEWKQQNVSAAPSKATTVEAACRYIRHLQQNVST
# Experiment: relative binding free energy (BET-seq); higher = weaker binding
# Settings: reference: library average
row,Sequence,relative binding free energy [kcal/mol]
1,CGAGGCACGTGAGGGG,0.08
2,CGTTGCACGTGAGGGC,0.04
3,AGTGACACGTGGTAAA,0.01
4,CTGCTCACGTGAGGGG,0.32
5,CTTCGCACGTGAGTGT,0.03
6,GGTGTCACGTGGTAGT,0.07
7,AAAGTCACGTGACGTG,0.29
8,ATTATCACGTGCAATT,0.22
9,TTAATCACGTGGGCTG,0.13
10,TTGGGCACGTGATGCA,-0.03
11,TCAGTCACGTGTTAAG,0.18
12,GGTAGCACGTGATGCT,0
13,TCATACACGTGGGGAT,0.06
14,ATTTTCACGTGAGAAA,0.48
15,TGTCGCACGTGGCTTT,-0.28
16,GAGGGCACGTGGGGCT,-0.16
17,TAGTTCACGTGAGACG,0.34
18,TGGATCACGTGCTTTG,0.16
19,TTTGCCACGTGCTGGG,-0.14
20,GCTGGCACGTGTGATA,0.05
21,GCTGCCACGTGATGGT,0.13
22,TATGCCACGTGGATTT,0
23,GTTGTCACGTGGTTCC,0.07

row,Sequence,relative binding free energy [kcal/mol]
1,TTAGTCACGTGTCGTA,0.04
2,TGATCCACGTGTTGTT,0.02
3,CTTTGCACGTGGGTGT,-0.1
4,TCTTGCACGTGATTAT,0.12
5,TAGGGCACGTGGTTAA,-0.13
6,CGGTGCACGTGTTTGG,-0.07
7,TGTTTCACGTGGTTAT,0.4
8,TTATACACGTGTATTT,-0.06
9,GTATTCACGTGTGCAG,0.29
10,AGCTTCACGTGGTGGG,0.04
11,TTCATCACGTGAATTT,0.29
12,ATTGCCACGTGTTAGT,-0.02
13,TTTTACACGTGCGTGT,0.06
14,AAGTGCACGTGGTTTA,0.05
15,TAAGTCACGTGACGGG,0.17
16,GGCAGCACGTGCTGGT,-0.05
17,GTGGGCACGTGAAAAT,0.16
18,GTATACACGTGGAGGA,0.19
19,TATTTCACGTGCGATA,0.31
20,TATAGCACGTGGACTG,-0.1
21,CAAAGCACGTGGGGTA,-0.24
22,AACCGCACGTGAGGGT,0.24
23,GAAAGCACGTGTAAGG,0.09

row,Sequence,relative binding free energy [kcal/mol]
1,CTTTGCACGTGGGTGA,-0.09
2,TTGTGCACGTGTTTGA,0.02
3,CGGGTCACGTGCGGTG,0.11
4,AGTGTCACGTGGATCG,-0.04
5,CTTGGCACGTGTCTGG,-0.1
6,AATATCACGTGGTGTT,0.15
7,GTGAGCACGTGGGATG,-0.15
8,TGGTTCACGTGGTGCA,0.27
9,TATGTCACGTGGGCTA,-0.12
10,GCTGGCACGTGAATTG,0.24
11,GGTAGCACGTGTATTT,0.14
12,TGCTGCACGTGTAGGT,-0.06
13,CCGGTCACGTGTTGGG,0.02
14,TTTAACACGTGCTGGA,-0.08
15,TTAAGCACGTGAGACG,0.23
16,ATTCGCACGTGGGGTT,-0.15
17,TAGGACACGTGCATGG,-0.02
18,CTGTACACGTGGGGTG,-0.12
19,AGTAGCACGTGAGTTA,0.05
20,TGTATCACGTGTGTGT,0.17
21,GCAGGCACGTGCGGGG,-0.27
22,ATGTTCACGTGCAGTG,0.2
23,GGGGTCACGTGGGGTC,0.09

row,Sequence,relative binding free energy [kcal/mol]
1,TGAGTCACGTGTGTTA,0.15
2,GTAGGCACGTGGAAGA,0.1
3,ATATGCACGTGGCGGG,-0.2
4,AAGGGCACGTGATGGG,0.05
5,AGTATCACGTGAAATT,0.32
6,GTTAACACGTGGTATG,-0.01
7,CTTAGCACGTGTGGCT,-0.04
8,GTTTTCACGTGTATGA,0.4
9,TCGTGCACGTGGGTCG,-0.15
10,GTATACACGTGGACGT,-0.01
11,TAGATCACGTGCTATT,0.19
12,ACTGTCACGTGGGGTA,0.02
13,TGTATCACGTGCCGGG,-0.02
14,TTAATCACGTGTTAGT,0.2
15,TTAGGCACGTGGATCT,-0.06
16,AGCGACACGTGTAAGG,0.25
17,CGTAGCACGTGAGTTT,0.23
18,TTTTTCACGTGTTGTC,0.32
19,GTATTCACGTGATTTG,0.31
20,GATCGCACGTGGGCTG,-0.11
21,TCGCGCACGTGGGGAG,-0.2
22,TGGGTCACGTGGTGCG,0.09
23,TGGTGCACGTGGAGCG,-0.03

row,Sequence,relative binding free energy [kcal/mol]
1,TTTTTCACGTGAAAAG,0.44
2,CATTGCACGTGGATAG,0.1
3,CGTTACACGTGGGTAA,-0.05
4,GTTGTCACGTGCAGAT,0.13
5,CATGGCACGTGGGGAA,-0.2
6,TGTGGCACGTGGGTCG,-0.18
7,GAGTTCACGTGGTTGG,0.37
8,CTAGTCACGTGGTGAT,0.03
9,AATTGCACGTGGTTTC,0.08
10,TGACGCACGTGTGGTT,-0.04
11,GTCTGCACGTGGAAGT,0.13
12,TGTGTCACGTGAGGTT,0.29
13,GGTAACACGTGAGATG,0.38
14,TTTTACACGTGCGAAT,0.26
15,GGAATCACGTGAAGTA,0.43
16,AATTGCACGTGTCATG,0.06
17,TGAAACACGTGGTAGT,-0.03
18,TAATGCACGTGTGGGG,0.04
19,ATGGTCACGTGGTAAA,0.04
20,TTAGGCACGTGAGTGA,0.17
21,TTTGTCACGTGATAAA,0.17
22,GGAGACACGTGGTATA,0.02
23,GAGGACACGTGGTGGT,0.22

# Source: the BET-seq Pho4 binding data (Le et al. 2018)
